# Measurements: the supplement of paper PMC8728848
# This is one part of the list.
# Columns and labels:
# Experiment in all cases: glycan array binding signal (z-score within array); higher = stronger binding
# Settings in all cases: glycan notation: IUPAC condensed, linker removed
# [1] = target: GlcNAc(b1-3)Gal(b1-4)GlcNAc(b1-3)Gal(b1-4)GlcNAc(b1-2)Man(a1-3)[GlcNAc(b1-3)Gal(b1-4)GlcNAc(b1-3)Gal(b1-4)GlcNAc(b1-2)Man(a1-6)]Man(b1-4)GlcNAc(b1-4)GlcNAc
# In short: (§1)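 Arrays were curated from the Consortium for Functional Glycomics database, 3228 in total, and kept only where the protein sequence was available. Binding is expressed as a within-array Z-score. This score was averaged across arrays of the same protein sequence at different concentrations or buffers and across linkers, and negative values can be read as non-binding.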
# [2] = target: GlcNAc(b1-3)Gal(b1-4)GlcNAc(b1-3)Gal(b1-4)GlcNAc(b1-2)Man(a1-3)[GlcNAc(b1-3)Gal(b1-4)GlcNAc(b1-3)Gal(b1-4)GlcNAc(b1-2)Man(a1-6)]Man(b1-4)GlcNAc(b1-4)[Fuc(a1-6)]GlcNAc
# In short: as §1
# [3] = target: GlcNAc(b1-3)Gal(b1-4)GlcNAc(b1-3)Gal(b1-4)GlcNAc(b1-2)[GlcNAc(b1-3)Gal(b1-4)GlcNAc(b1-3)Gal(b1-4)GlcNAc(b1-6)]Man(a1-6)[GlcNAc(b1-3)Gal(b1-4)GlcNAc(b1-3)Gal(b1-4)GlcNAc(b1-2)Man(a1-3)]Man(b1-4)GlcNAc(b1-4)[Fuc(a1-6)]GlcNAc
# In short: as §1
# [4] = target: GlcNAc(b1-3)Gal(b1-4)GlcNAc(b1-3)Gal(b1-4)GlcNAc(b1-3)Gal(b1-4)GlcNAc(b1-2)Man(a1-3)[GlcNAc(b1-3)Gal(b1-4)GlcNAc(b1-3)Gal(b1-4)GlcNAc(b1-3)Gal(b1-4)GlcNAc(b1-2)Man(a1-6)]Man(b1-4)GlcNAc(b1-4)GlcNAc
# In short: as §1
# [5] = target: GlcNAc(b1-3)Gal(b1-4)GlcNAc(b1-3)Gal(b1-4)GlcNAc(b1-3)Gal(b1-4)GlcNAc(b1-2)Man(a1-3)[GlcNAc(b1-3)Gal(b1-4)GlcNAc(b1-3)Gal(b1-4)GlcNAc(b1-3)Gal(b1-4)GlcNAc(b1-2)Man(a1-6)]Man(b1-4)GlcNAc(b1-4)[Fuc(a1-6)]GlcNAc
# In short: as §1
# [6] = target: GlcNAc(b1-3)Gal(b1-4)GlcNAc(b1-3)Gal(b1-4)GlcNAc(b1-3)Gal(b1-4)GlcNAc(b1-2)[GlcNAc(b1-3)Gal(b1-4)GlcNAc(b1-3)Gal(b1-4)GlcNAc(b1-3)Gal(b1-4)GlcNAc(b1-6)]Man(a1-6)[GlcNAc(b1-3)Gal(b1-4)GlcNAc(b1-3)Gal(b1-4)GlcNAc(b1-3)Gal(b1-4)GlcNAc(b1-2)Man(a1-3)]Man(b1-4)GlcNAc(b1-4)[Fuc(a1-6)]GlcNAc
# In short: as §1
# [7] = target: GlcNAc(b1-3)Gal(b1-4)GlcNAc(b1-3)Gal(b1-4)GlcNAc(b1-3)Gal(b1-4)GlcNAc(b1-3)Gal(b1-4)GlcNAc(b1-2)Man(a1-3)[GlcNAc(b1-3)Gal(b1-4)GlcNAc(b1-3)Gal(b1-4)GlcNAc(b1-3)Gal(b1-4)GlcNAc(b1-3)Gal(b1-4)GlcNAc(b1-2)Man(a1-6)]Man(b1-4)GlcNAc(b1-4)GlcNAc
# In short: as §1
# [8] = target: GlcNAc(b1-3)Gal(b1-4)GlcNAc(b1-3)Gal(b1-4)GlcNAc(b1-3)Gal(b1-4)GlcNAc(b1-3)Gal(b1-4)GlcNAc(b1-2)Man(a1-3)[GlcNAc(b1-3)Gal(b1-4)GlcNAc(b1-3)Gal(b1-4)GlcNAc(b1-3)Gal(b1-4)GlcNAc(b1-3)Gal(b1-4)GlcNAc(b1-2)Man(a1-6)]Man(b1-4)GlcNAc(b1-4)[Fuc(a1-6)]GlcNAc
# In short: as §1
# [9] = target: GlcNAc(b1-3)Gal(b1-4)GlcNAc(b1-3)Gal(b1-4)GlcNAc(b1-3)Gal(b1-4)GlcNAc(b1-3)Gal(b1-4)GlcNAc(b1-2)[GlcNAc(b1-3)Gal(b1-4)GlcNAc(b1-3)Gal(b1-4)GlcNAc(b1-3)Gal(b1-4)GlcNAc(b1-3)Gal(b1-4)GlcNAc(b1-6)]Man(a1-6)[GlcNAc(b1-3)Gal(b1-4)GlcNAc(b1-3)Gal(b1-4)GlcNAc(b1-3)Gal(b1-4)GlcNAc(b1-3)Gal(b1-4)GlcNAc(b1-2)Man(a1-3)]Man(b1-4)GlcNAc(b1-4)[Fuc(a1-6)]GlcNAc
# In short: as §1
# [10] = target: GlcNAc(b1-3)Gal(b1-4)GlcNAc(b1-3)Gal(b1-4)GlcNAc(b1-3)GalNAc
# In short: as §1
# [11] = target: GlcNAc(b1-3)Gal(b1-4)GlcNAc(b1-3)GalNAc
# In short: as §1
# [12] = target: GlcNAc(b1-3)Gal(b1-4)GlcNAc(b1-3)[GlcNAc(b1-3)Gal(b1-4)GlcNAc(b1-3)]GalNAc
# In short: as §1
# [13] = target: GlcNAc(b1-3)Gal(b1-4)GlcNAc(b1-6)[Gal(b1-3)]GalNAc
# In short: as §1
# [14] = target: GlcNAc(b1-3)Gal(b1-4)GlcNAc(b1-6)[GlcNAc(b1-3)Gal(b1-3)]GalNAc
# In short: as §1
# [15] = target: GlcNAc(b1-3)Gal(b1-4)GlcNAc(b1-6)[GlcNAc(b1-3)]Gal(b1-4)GlcNAc
# In short: as §1
# GlcNAc(b1-3)GalNAc = target: GlcNAc(b1-3)GalNAc
# In short: as §1
# GlcNAc(b1-3)Man = target: GlcNAc(b1-3)Man
# In short: as §1
# [16] = target: GlcNAc(b1-3)[GlcNAc(b1-4)][GlcNAc(b1-6)]GlcNAc
# In short: as §1
# [17] = target: GlcNAc(b1-3)[GlcNAc(b1-6)]Gal(b1-4)GlcNAc
# In short: as §1
# [18] = target: GlcNAc(b1-3)[GlcNAc(b1-6)]GalNAc
# In short: as §1
# [19] = target: GlcNAc(b1-3)[GlcNAc(b1-6)]GlcNAc(b1-4)GlcNAc
# In short: as §1
# [20] = target: GlcNAc(b1-4)Gal(b1-4)GlcNAc
# In short: as §1
# GlcNAc(b1-4)GlcNAc = target: GlcNAc(b1-4)GlcNAc
# In short: as §1
# [21] = target: GlcNAc(b1-4)GlcNAc(b1-4)GlcNAc
# In short: as §1
# [22] = target: GlcNAc(b1-4)GlcNAc(b1-4)GlcNAc(b1-4)GlcNAc(b1-4)GlcNAc
# In short: as §1
# [23] = target: GlcNAc(b1-4)GlcNAc(b1-4)GlcNAc(b1-4)GlcNAc(b1-4)GlcNAc(b1-4)GlcNAc
# In short: as §1
# [24] = target: GlcNAc(b1-4)[GlcNAc(b1-6)]GalNAc
# In short: as §1
# [25] = target: GlcNAc(b1-6)Gal(b1-4)GlcNAc
# In short: as §1
# GlcNAc(b1-6)GalNAc = target: GlcNAc(b1-6)GalNAc
# In short: as §1
# [26] = target: GlcNAc6S(b1-3)Gal(b1-4)GlcNAc
# In short: as §1
# Kdn(a2-3)Gal(b1-3)GalNAc = target: Kdn(a2-3)Gal(b1-3)GalNAc
# In short: as §1
# Kdn(a2-3)Gal(b1-3)GlcNAc = target: Kdn(a2-3)Gal(b1-3)GlcNAc
# In short: as §1
# Kdn(a2-3)Gal(b1-4)Glc = target: Kdn(a2-3)Gal(b1-4)Glc
# In short: as §1
# Kdn(a2-3)Gal(b1-4)GlcNAc = target: Kdn(a2-3)Gal(b1-4)GlcNAc
# In short: as §1
# [27] = target: Kdn(a2-3)Gal(b1-4)[Fuc(a1-3)]GlcNAc
# In short: as §1
# Kdn(a2-6)Gal(b1-4)GlcNAc = target: Kdn(a2-6)Gal(b1-4)GlcNAc
# In short: as §1
# [28] = target: Man(a1-2)Man(a1-2)Man(a1-3)Man
# In short: as §1
# [29] = target: Man(a1-2)Man(a1-2)Man(a1-6)[Man(a1-3)]Man
# In short: as §1
# Man(a1-2)Man(a1-3)Man = target: Man(a1-2)Man(a1-3)Man
# In short: as §1
# [30] = target: Man(a1-2)Man(a1-3)[Man(a1-2)Man(a1-6)]Man
# In short: as §1
# [31] = target: Man(a1-2)Man(a1-3)[Man(a1-2)Man(a1-6)]Man(a1-6)[Man(a1-2)Man(a1-2)Man(a1-3)]Man
# In short: as §1
# [32] = target: Man(a1-2)Man(a1-3)[Man(a1-2)Man(a1-6)]Man(a1-6)[Man(a1-2)Man(a1-2)Man(a1-3)]Man(b1-4)GlcNAc(b1-4)GlcNAc
# In short: as §1
# [33] = target: Man(a1-2)Man(a1-3)[Man(a1-6)]Man(a1-6)[Man(a1-2)Man(a1-3)]Man(b1-4)GlcNAc(b1-4)GlcNAc
# In short: as §1
# [34] = target: Man(a1-2)Man(a1-6)[Man(a1-3)]Man(a1-6)[Man(a1-2)Man(a1-2)Man(a1-3)]Man
# In short: as §1
# [35] = target: Man(a1-2)Man(a1-6)[Man(a1-3)]Man(a1-6)[Man(a1-2)Man(a1-2)Man(a1-3)]Man(b1-4)GlcNAc(b1-4)GlcNAc
# In short: as §1
binder,measurement,setting,value
"BDCA-2 (Homo sapiens), Q8WTT0 (protein) MVPEEEPQDREKGLWWFQLKVWSMAVVSILLLSVCFTVSSVVPHNFMYSKTVKRLSKLREYQQYHPSLTCVMEGKDIEDWSCCPTPWTSFQSSCYFISTGMQSWTKSQKNCSVMGADLVVINTREEQDFIIQNLKRNSSYFLGLSDPGGRRHWQWVDQTPYNENVTFWHSGEPNNLDERCAIINFRSSEEWGWNDIHCHVPQKSICKMKKIYI",glycan array binding signal (z-score),[1],-0.116
same,glycan array binding signal (z-score),[2],-0.156
same,glycan array binding signal (z-score),[3],-0.14
same,glycan array binding signal (z-score),[4],-0.134
same,glycan array binding signal (z-score),[5],-0.148
same,glycan array binding signal (z-score),[6],-0.166
same,glycan array binding signal (z-score),[7],-0.144
same,glycan array binding signal (z-score),[8],-0.146
same,glycan array binding signal (z-score),[9],-0.121
same,glycan array binding signal (z-score),[10],-0.189
same,glycan array binding signal (z-score),[11],-0.167
same,glycan array binding signal (z-score),[12],-0.168
same,glycan array binding signal (z-score),[13],-0.177
same,glycan array binding signal (z-score),[14],-0.178
same,glycan array binding signal (z-score),[15],-0.173
same,glycan array binding signal (z-score),GlcNAc(b1-3)GalNAc,-0.244
same,glycan array binding signal (z-score),GlcNAc(b1-3)Man,-0.171
same,glycan array binding signal (z-score),[16],-0.171
same,glycan array binding signal (z-score),[17],0.142
same,glycan array binding signal (z-score),[18],-0.234
same,glycan array binding signal (z-score),[19],-0.249
same,glycan array binding signal (z-score),[20],-0.089
same,glycan array binding signal (z-score),GlcNAc(b1-4)GlcNAc,-0.172
same,glycan array binding signal (z-score),[21],-0.228
same,glycan array binding signal (z-score),[22],-0.199
same,glycan array binding signal (z-score),[23],-0.251
same,glycan array binding signal (z-score),[24],-0.255
same,glycan array binding signal (z-score),[25],-0.127
same,glycan array binding signal (z-score),GlcNAc(b1-6)GalNAc,-0.196
same,glycan array binding signal (z-score),[26],-0.188
same,glycan array binding signal (z-score),Kdn(a2-3)Gal(b1-3)GalNAc,-0.175
same,glycan array binding signal (z-score),Kdn(a2-3)Gal(b1-3)GlcNAc,-0.15
same,glycan array binding signal (z-score),Kdn(a2-3)Gal(b1-4)Glc,-0.013
same,glycan array binding signal (z-score),Kdn(a2-3)Gal(b1-4)GlcNAc,-0.072
same,glycan array binding signal (z-score),[27],-0.147
same,glycan array binding signal (z-score),Kdn(a2-6)Gal(b1-4)GlcNAc,-0.183
same,glycan array binding signal (z-score),[28],-0.108
same,glycan array binding signal (z-score),[29],-0.183
same,glycan array binding signal (z-score),Man(a1-2)Man(a1-3)Man,-0.125
same,glycan array binding signal (z-score),[30],-0.237
same,glycan array binding signal (z-score),[31],-0.174
same,glycan array binding signal (z-score),[32],-0.222
same,glycan array binding signal (z-score),[33],-0.253
same,glycan array binding signal (z-score),[34],-0.168
same,glycan array binding signal (z-score),[35],-0.155
